Hit rate of the full screen: of about 43,000 compounds, about 200 (0.47%) were called active. Roughly 12% stayed inconclusive and do not appear here. Calls come from the whole dose curve; as a rule, active = well fitted cell-killing curve with a large enough effect; inconclusive = small, poorly fitted or top-dose-only effect, or effect the other way; inactive = flat fitted curve, though single readings scatter. Some of the results follow.
assay: Cell viability qHTS assay in S16 Pmp22-F2sN cells; conditions: S16 Pmp22-F2sN Schwann cells viability, CellTiter-Glo, 24 h; series mostly up to 57.5 µM; activity change, negative = cytotoxicity: at the top concentration; note: nearly all actives have a fitted effect of over 65% in size
Method in brief: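 S16 Pmp22-F2sN Schwann cells (500-1,000/well) in phenol-red-free DMEM with 10% FBS received 23 nL compound by pin tool for 24 h at 37 °C. Viability was then read as CellTiter-Glo luminescence after 15 min at room temperature.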
% is set by controls: 0 for no effect and ±100 for the full control effect.

| Structure (SMILES) | activity change, negative = cytotoxicity |
| --- | --- |
| Cc1ccc(Cl)cc1NC(=O)C1CCN(c2nc3ccccc3n3cccc23)CC1 | inactive: 4.56% |
| CCCn1c2ccccc2c2cnn(CC(=O)NCCc3ccc(C)cc3)c(=O)c21 | inactive: -4.05% |
| CCCCOC(=O)c1ccc(Nc2nnc(-n3nc(C)cc3C)c3ccccc23)cc1 | inactive: -15.1% |
| Cc1nnc2c3ccccc3nc(Nc3cccc(O)c3)n12 | inactive: -8.07% |
| COc1ccc(-c2noc(CSc3nc(N)cc(=O)[nH]3)n2)cc1OC | inactive: 5.12% |
| O=C(NC1CC(=O)N(c2ccc(Cl)cc2)C1)c1ccc(S(=O)(=O)N2CCOCC2)cc1 (stereo unspecified) | inactive: -1.35% |
| COc1cc(C2C(C(=O)Nc3ccccc3)=C(C)Nc3nnnn32)cc(OC)c1OC (stereo unspecified) | inactive: -8.09% |
| COc1ccc(-c2noc(CN(C(=O)c3cc(OC)c(OC)cc3OC)C(C)C)n2)cc1 | inactive: 11.8% |
| COCCn1c(=O)[nH]c2cc(C(=O)Nc3cccc(C(C)=O)c3)ccc2c1=O | inactive: 11.4% |
| COc1ccc(Nc2oc(/C=C/c3ccc(OC)c(OC)c3)nc2C#N)cc1 | inactive: 0.442% |
| Cc1ccc(CN2CCCn3nc(C(=O)NCC(C)c4ccccc4)cc3C2=O)cc1 (stereo unspecified) | inactive: -13.7% |
| CCc1nn(CC(=O)NCCCOC)c(=O)c2cc3ccccc3n12 | inactive: -1.8% |
| Cc1cc(C)c2oc(C(=O)Nc3ccc(S(=O)(=O)Nc4nccc(C)n4)cc3)cc(=O)c2c1 | inactive: 3.44% |
| CCOc1ccc(S(=O)(=O)Nc2cc(Cl)ccc2OC)c2cccnc12 | inactive: -16.6% |
| Cc1ccc(/C=C/c2onc(C)c2S(=O)(=O)N2CCC(C(=O)Nc3cc(F)ccc3F)CC2)cc1 | inactive: 11.8% |
| O=C(Nc1ccc(Cl)c(C(F)(F)F)c1)C(Cc1ccccc1)NS(=O)(=O)c1cccc2nsnc12 (stereo unspecified) | inactive: -20.8% |
| CCc1cc2c(cc3c(=O)n(CC(=O)NCCc4ccccc4)ncn32)s1 | inactive: 0.233% |
| CCC(Sc1nc2ncccc2o1)C(=O)Nc1cccc(C)c1 (stereo unspecified) | inactive: 5.86% |
| COc1ccc2oc(=O)c(-c3nc(-c4ccc(C)c(C)c4)cs3)cc2c1 | inactive: 6.49% |
| Cc1ccc(C)c(NC(=O)c2ccc3c(c2)CCN3S(=O)(=O)c2ccccc2)c1 | inactive: 2.76% |
| O=C(CSc1nccn1Cc1ccc(Cl)cc1)Nc1ccc2c(c1)OCO2 | inactive: 0.98% |

| Structure (SMILES) | activity change, negative = cytotoxicity |
| --- | --- |
| COc1ccc(NC(=O)C2CCCN(S(=O)(=O)c3c(C)[nH]c(=O)[nH]c3=O)C2)cc1Cl (stereo unspecified) | inactive: 3.69% |
| COc1cccc(-n2cc(C(=O)NCc3ccc(C)cc3)c3ccccc3c2=O)c1 | inactive: -5.37% |
| O=C(CN1N=C(c2ccccc2)CCC1=O)NCc1ccc(F)cc1Cl | inactive: -1.09% |
| CCc1ccc(C2c3c(-c4ccccc4)n[nH]c3C(=O)N2c2ccc(C(=O)O)cc2)cc1 (stereo unspecified) | inactive: 12.9% |
| CCCN(CCC)CCCNC(=O)c1cn(C)c2ccc(S(=O)(=O)N3CCOCC3)cc2c1=O | inactive: 7.54% |
| CCn1cc(C(=O)NCCc2ccccc2)c(=O)c2cc(S(=O)(=O)N3CCc4ccccc4C3)ccc21 | inactive: 3.52% |
| COc1ccc(-c2cc(C)no2)cc1S(=O)(=O)N1CCOc2ccc(Cl)cc21 | inactive: -0.798% |
| COC(=O)c1ccc2c(=O)n(CCCCCC(=O)NCc3ccc(OC)cc3)c(=O)[nH]c2c1 | inactive: -19.9% |
| COc1ccc(CCNc2nc(SCc3cccc(F)c3)nc3ccccc23)cc1OC | inactive: 13.7% |
| CCC(C)NC(=O)CN1C(=O)c2cccnc2Oc2ccc(C)cc21 (stereo unspecified) | inactive: 0.378% |
| CC(C)c1ccc(NC(=O)CN2C(=O)COc3ccc(S(=O)(=O)N4CCOCC4)cc32)cc1 | inactive: 5.63% |
| Cc1ccccc1C(=O)n1nc(-c2ccco2)nc1NCc1cccs1 | inactive: 7.46% |
| Cc1ccc2[nH]c(CSc3nnc(NC(=O)COc4ccc(F)cc4)s3)cc(=O)c2c1 | inactive: 0.821% |
| COc1ccc(C2CC(=O)N(CC(=O)Nc3ccc(C(C)=O)cc3)c3ccccc3S2)cc1OC (stereo unspecified) | inactive: -0.387% |
| CCOC(=O)c1c(C)oc2nc(C)nc(N3CCN(c4cccc(C(F)(F)F)c4)CC3)c12 | inactive: 4.62% |
| CCCN(CCC)CCNC(=O)c1nn(C)c2c1CS(=O)(=O)c1ccccc1-2 | inactive: -2.8% |
| CCOC(=O)c1c(NC(=O)/C=C/c2ccc(Cl)cc2)sc2c1CCC(C)C2 (stereo unspecified) | inactive: -10.9% |
| COc1ccc(CCC(=O)NC2CC(=O)N(c3ccccc3)C2)cc1 (stereo unspecified) | inactive: 8.8% |
| O=C(CCCCn1c(=O)c2ccccc2n(Cc2cccc(Cl)c2)c1=O)NCc1ccc2c(c1)OCO2 | inactive: 19.3% |
| COc1ccc(CNC(=O)c2cc(-c3ccc(Cl)cc3)n[nH]2)cc1 | inactive: -3.47% |
| O=C(NCc1nc(-c2ccccc2)no1)c1ccco1 | inactive: 4.41% |

| Structure (SMILES) | activity change, negative = cytotoxicity |
| --- | --- |
| COc1cc(Cl)c(C)cc1NC(=O)c1nn(C)c2c1CSc1ccccc1-2 | inactive: 16.6% |
| Cc1cc(=O)n2[nH]c(NC(=O)c3cccc(Cl)c3)nc2n1 | inactive: 7.79% |
| COc1ccc(CNC(=O)Cn2ncc3c(=O)oc4ccc(C)cc4c32)c(OC)c1 | inactive: 5.36% |
| COc1ccc(-c2nc(CN3CCC(C(=O)NCc4ccc(F)cc4)CC3)c(C)o2)cc1OC | inactive: 5.18% |
| CCCC(=O)Nc1nnc(SCc2cc(=O)n3cccc(C)c3n2)s1 | inactive: -8.73% |
| CC1=Nc2cc(C(=O)N3CCCCC3)ccc2Sc2ccc(C)cc21 | inactive: 12.9% |
| Cc1c(C(=O)NCc2ccc(OC(C)C)cc2)sc2ncnc(N(C)C3CCCCC3)c12 | inactive: 3.87% |
| COc1ccccc1CCNC(=O)CCCn1c(=O)c2cccn2c2cccnc21 | inactive: 18.6% |
| CCOC(=O)c1ccc(Nc2nc3ccccc3n3c(C)nnc23)cc1 | inactive: -2.55% |
| CCN1CCN(CCCNC(=O)c2cnn(-c3ccc(OC)cc3)c2C2CCN(C(=O)OC(C)(C)C)CC2)CC1 | inactive: -3.18% |
| COC(=O)c1ccc(C(=O)OC)c(NC(=O)c2cnn3c(C(F)F)cc(-c4ccc(C)cc4)nc23)c1 | inactive: 4.08% |
| O=C(Cn1c(-c2cccs2)cc2cc(F)ccc21)N1CCCCC1 | inactive: -6.17% |
| Cc1cccc(N2CCN(c3ncnc4c3cnn4-c3ccc(Cl)cc3)CC2C)c1 (stereo unspecified) | inactive: 15.2% |
| COC(=O)c1scc(-c2ccc(C)cc2)c1S(=O)(=O)N1CCN(c2ccccc2F)CC1 | inactive: -8.9% |
| COc1cccc(C(=O)Nc2c3c(nn2-c2ccc(C)cc2C)CS(=O)(=O)C3)c1OC | inactive: -3.55% |
| CCOCCc1nn2c(=O)cc(COC(=O)c3ccccc3NC(=O)CC(C)C)nc2s1 | inactive: -1.65% |
| COc1ccc(N(C)S(=O)(=O)c2ccc3c(c2)n(C)c(=O)c(=O)n3C)cc1 | inactive: 0.151% |
| CCOc1ccc(-c2noc(CSc3nnc(Cc4ccccc4)n3-c3ccc(F)cc3)n2)cc1 | inactive: -8.78% |
| CCC(=O)Nc1ccccc1C(=O)OCc1cc(=O)n2cc(C)sc2n1 | inactive: 2.78% |

From PubChem BioAssay AID1508642 (National Center for Advancing Translational Sciences (NCATS), 2021)
